# Test results: PubChem BioAssay AID686978 (National Center for Advancing Translational Sciences (NCATS), 2013)
# In all, about 420,000 compounds went through this assay and about 64,000 (15%) were called active. Inconclusive results, whose numbers are uncertain, are shown with a selection of clear calls. Calls follow the shape of the dose curve; as a rule, active = well fitted inhibition curve with a large enough effect; inconclusive = small, poorly fitted or top-dose-only effect; inactive = flat fitted curve, though single readings scatter. No potency is given beside an inconclusive call; the fits are too rough.
# Assay: qHTS for Inhibitors of human tyrosyl-DNA phosphodiesterase 1 (TDP1): qHTS in cells in absence of CPT; also: nearly all actives have a fitted effect of over 55% in size
# Settings: DT40 Tdp1-/- hTDP1 cells, no CPT, ATP luminescence, 48 h; activity change, negative = growth inhibition: at 46.2 µM (top of the series) unless noted
# In short: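 Growth of hTDP1-complemented DT40 Tdp1-knockout cells is measured by ATP luminescence after at least 48 hr compound exposure at 37 °C, with DMSO substituting for the 20 nM CPT used in the parallel screen.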
# % is scaled to controls: 0 for no effect and ±100 for the full control effect; potency is read from the fitted curve at half-maximal effect; tags tell the direction and shape of the fitted curve.
SMILES,Potency,"activity change, negative = growth inhibition"
CCc1ccc(/C=C/C(=O)C2C(=O)c3ccccc3C2=O)cc1,"inconclusive [inhibitor, single point]",–
S=C(NCc1ccccn1)Nc1ccc(Br)cc1Cl,inactive,–
C[C@H]1CN([C@@H](C)CO)S(=O)(=O)c2ccc(C#Cc3ccccn3)cc2O[C@H]1CN(C)Cc1ccc(F)cc1,"inconclusive [inhibitor, single point]",–
C/C(=N\Nc1ccc(S(=O)(=O)N2CCCCC2)cn1)c1ccc(O)cc1,active: 14.6 µM,–
O=C(Nc1ccc2nc(SCCOc3ccccc3)sc2c1)c1cccs1,active: 20.6 µM,–
O=C(COC(=O)[C@@H]1CCCN1S(=O)(=O)c1ccccc1F)Nc1ccc(OC(F)F)cc1,inactive,–
COc1ccc(-c2csc3ncn(-c4ccc(C)cc4)c(=O)c23)cc1OC,"inconclusive [inhibitor, single point]",–
N#Cc1cccc(C(=O)C(=O)N2CCCN(Cc3ccc(F)cc3)CC2)c1,"inconclusive [inhibitor, single point]",–
CC(=O)C1=CCC(c2cccs2)N(S(=O)(=O)c2ccc(C)cc2)C1 (configuration not stated),"inconclusive [inhibitor, single point]",–
O=C(COc1ccccc1)Nc1ccc(S(=O)(=O)N2CCCCCC2)cc1,"inconclusive [inhibitor, partial curve, poor fit]",–
CCCCn1c(SCC(=O)NCc2ccco2)nc2ccc(N3CCOCC3)cc2c1=O,"inconclusive [inhibitor, single point]",–
Cc1cc(C)c(C#N)c(SCc2ccccc2C)n1,"inconclusive [inhibitor, single point]",–
CC1(C)CC(=O)C2=C(C1)Nc1cc(Cl)ccc1S2,"inconclusive [inhibitor, single point]",–
CCCn1c(COc2ccccc2OC)nc2ccccc21,"inconclusive [inhibitor, single point]",–
O=C(OCC(=O)c1ccccc1Br)c1ccccn1,–,inconclusive: -31.7% [inhibitor]
Cc1c(Cl)cccc1NC(=O)CN1C(=O)COc2ccc(S(=O)(=O)N3CCCCCC3)cc21,"inconclusive [inhibitor, partial curve]",–
CCOc1ccc(OCc2nnc(SCC(=O)NC3CCS(=O)(=O)C3)n2-c2ccc(Cl)cc2)cc1 (configuration not stated),inactive,–
O=C(N/N=C/c1ccncc1)c1cccc(N/N=C/c2ccncc2)c1,"inconclusive [inhibitor, single point]",–
O=C(C1=C[C@H](C2CCCCC2)C[C@H](OCc2ccc(CO)cc2)O1)N1CCN(Cc2ccccc2)CC1,active: 18.4 µM,–
O=C(NNC(=O)c1cc2cc(Br)ccc2oc1=O)c1ccc(O)cc1O,active: 9.2 µM,–
CSC(=NCc1ccco1)NC#N,inactive,–
CCOc1ccccc1NC(=O)c1sc2nc(C)cc(C)c2c1N,"inconclusive [inhibitor, single point]",–
COc1ccc(CCNC(=O)C2CCCN2C(=O)Nc2ccc(C)cc2)cc1OC (configuration not stated),inactive,–
CCOC(=O)C1CCN(S(=O)(=O)c2ccc(NC(=O)c3ccco3)cc2)CC1,inactive,–

SMILES,Potency,"activity change, negative = growth inhibition"
O=C(Nc1ccccc1Cl)c1ccccc1Oc1ccc(C(F)(F)F)cc1[N+](=O)[O-],active: 18.4 µM,–
O=C(NCc1ccco1)c1cccc(-c2cncc3nccn23)c1,inactive,–
COc1cccc(CNC(=O)CSc2ncc3c(n2)-c2cc(Cl)ccc2N(C)S3(=O)=O)c1,"inconclusive [inhibitor, single point]",–
O=S(=O)(N/N=C/c1cccc(OC2CSC2)c1)c1ccccc1,"inconclusive [inhibitor, single point]",–
CCc1ccc(NC(=O)c2ccc(F)c(S(=O)(=O)NC3CCCCCC3)c2)cc1,active: 20.6 µM,–
COc1ccc(-c2c(C)nn3c(N4CCC5(CC4)OCCO5)cc(C)nc23)cc1OC,inactive,–
CCCCOc1ccc(C2(C(=O)O)CCCC2)cc1,inactive,–
O=C(NN1CCOCC1)c1sc2cccc(F)c2c1Cl,inactive,–
Cc1ccc(C)c(N2CCN(C(=O)Nc3ccc4c(c3)N(C)C(=O)CS4)CC2)c1,active: 16.4 µM,–
CC1CCCC(C)N1C(=O)COC(=O)c1c[nH]c2ccccc12 (configuration not stated),active: 3.26 µM,–
O=C(COC(=O)Cc1ccc(Br)cc1)NC1CC1,inactive,–
Cc1[nH]n(S(=O)(=O)c2ccccc2)c(=O)c1N=Nc1cccc(Cl)c1,inactive,–
CN(C)Cc1csc(Nc2ccc(C(=O)c3ccccc3)cc2)n1,"inconclusive [inhibitor, single point]",–
Cc1ccc(C)c(S(=O)(=O)N2CCCCC2CCNC(=O)C(=O)NCc2cccnc2)c1 (configuration not stated),"inconclusive [inhibitor, single point]",–
COc1ccc(CC2(CO)CCN(Cc3c(C)nn(C(C)C)c3C)CC2)cc1,"inconclusive [inhibitor, full curve]",–
Cc1ccc(Cl)cc1-n1c(=O)c2sc3ccccc3c2n(CC(=O)NC2CCCCC2)c1=O,"inconclusive [inhibitor, single point]",–
CCOC(=O)c1cc(C(=O)OCC)c(=O)[nH]c1N1CCCC1,"inconclusive [inhibitor, single point]",–
C#CCNC(=O)C1=C[C@@H](c2ccc(Br)cc2)[C@H](CCCO)[C@@H](OCC)O1,active: 14.6 µM,–
COc1cc(SC)ccc1C(=O)N1CCN(c2ccccc2F)CC1,"inconclusive [inhibitor, partial curve]",–
Cc1cccc(C)c1NC(=O)c1nc(S(C)(=O)=O)ncc1N(Cc1ccc(F)cc1)Cc1ccco1,"inconclusive [inhibitor, single point]",–
O=C(Cn1cnc2ccccc2c1=O)c1cccs1,"inconclusive [inhibitor, full curve, poor fit]",–
COC(=O)C1CCCN1C(=O)c1cccs1 (configuration not stated),inactive,–
CCOC(=O)c1cnc2c(C)cc(C)cc2c1NCCc1ccc(OC)c(OC)c1,active: 23.1 µM,–
